Screen size: about 200,000 compounds; about 4,500 (2.2%) were called active. Inconclusive results, whose numbers are uncertain, are shown with a selection of clear calls. The call rests on the fitted dose curve; in most records, active means well fitted inhibition curve with a large enough effect; inconclusive means small, poorly fitted or top-dose-only effect, or effect the other way; inactive means flat fitted curve, though single readings scatter. Potencies of inconclusive entries are doubtful fits and often do not repeat. Some structures have more than one record in an assay (separate samples or runs), and their calls can disagree.
The compounds below were run against Cruzipain (Trypanosoma cruzi) (UniProt P25779) (assay: qHTS Assay for Promiscuous and Specific Inhibitors of Cruzain (without detergent)). Conditions: purified cruzain, Z-FR-AMC fluorescence, no detergent.
Chain of UniProt P25779 (P25779 whole entry, looked up): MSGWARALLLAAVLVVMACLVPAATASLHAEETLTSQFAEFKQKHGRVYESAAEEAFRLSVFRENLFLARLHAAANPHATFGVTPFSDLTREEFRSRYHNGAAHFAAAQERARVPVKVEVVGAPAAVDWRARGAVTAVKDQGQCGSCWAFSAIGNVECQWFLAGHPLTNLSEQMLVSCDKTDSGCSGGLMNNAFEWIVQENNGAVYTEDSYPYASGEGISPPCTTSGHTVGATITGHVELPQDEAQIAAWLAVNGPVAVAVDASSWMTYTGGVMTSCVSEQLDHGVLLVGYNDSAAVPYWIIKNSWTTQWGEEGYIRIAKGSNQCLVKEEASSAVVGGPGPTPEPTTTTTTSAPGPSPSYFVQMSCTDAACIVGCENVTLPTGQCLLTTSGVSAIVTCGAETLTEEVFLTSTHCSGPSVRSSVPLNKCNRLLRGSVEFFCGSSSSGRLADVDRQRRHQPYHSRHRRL
Method in brief: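 Purified cruzain at 1.5 nM, pre-incubated 15 min with compound at room temperature in 100 mM sodium acetate pH 5.5, 5 mM DTT, 0.00005% Triton X-100. Reaction started with 2 uM Z-FR-AMC; AMC fluorescence increase over 60 s gives rate.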
In the case of CCc1cc2c(=O)c(-c3cnn(-c4ccccc4)c3)coc2c(CN2CCOCC2)c1O, the Potency is reported as inconclusive: 31.6 µM [activator, single point].
Cc1ccc2[nH]c3c(N4CCc5ccccc5C4)ncnc3c2c1 was tested, and the Potency was inconclusive: 31.6 µM [inhibitor, single point].
For CCCn1c2ccccc2c2nnc(SC(CC)C(=O)Nc3sc4c(c3C#N)CCCC4)nc21 (stereo unspecified), the Potency was active: 10 µM.
For CC1=N/C(=C/c2ccc([N+](=O)[O-])cc2)C(=O)N1c1ccc(Cl)cc1Cl, the max response, negative = inhibition was inactive: -18.7%.
With Cc1ccccc1OCC(=O)Nc1ccccc1C(=O)OCc1cc(=O)n2c(C)csc2n1 the max response, negative = inhibition was inactive: 10.1%.
In the case of N#Cc1ccccc1Sc1ccccc1C(=O)Nc1ccc2ccccc2c1, the Potency is reported as inconclusive: 39.8 µM [inhibitor, single point].
With O=C(Nc1ccc2c(c1)oc1ccc(S(=O)(=O)N3CCCC3)cc12)C1CC1 the Potency was inconclusive: 39.8 µM [inhibitor, single point].
In the case of CCSc1nnc(NC(=O)COc2ccccc2)s1, the Potency is reported as inconclusive: 39.8 µM [inhibitor, single point].
In the case of COc1ccccc1C(CC(=O)Nc1ccc(Cl)cc1)c1ccc(OC(C)C)cc1 (stereo unspecified), the Potency is reported as active: 3.16 µM.
Nc1ncnc2c1ncn2C1CCCC1 was tested, and the max response, negative = inhibition was inactive: -2.42%.
N#Cc1c(N)oc(-c2cccs2)c1-c1cccs1 was tested, and the Potency was inconclusive: 31.6 µM [inhibitor, single point].
In the case of Cc1cccc(N2C(=O)CS(=O)(=O)C23C(=O)N(C)c2ccccc23)c1 (stereo unspecified), the Potency is reported as inconclusive: 15.8 µM [inhibitor, partial curve].
In the case of CCCCc1cc(=O)oc2c(CN(C)C)c(O)c(Cl)cc12, the Potency is reported as inconclusive: 3.16 µM [activator, single point].
In the case of CN1c2ccc(Cl)cc2-c2nc(SCC(=O)Nc3cc(F)ccc3F)ncc2S1(=O)=O, the Potency is reported as active: 12.6 µM.
CCOc1ccc(CCNc2ncnc3onc(-c4ccc(F)cc4)c23)cc1OCC was tested, and the Potency was inconclusive: 39.8 µM [activator, single point].
N#Cc1cc2c(nc1SCC(=O)Nc1sc3c(c1C#N)CCC3)CCCC2 was tested, and the Potency was inconclusive: 12.6 µM [inhibitor, single point].
In the case of CC(C)OC(=O)[C@@H]1C=C[C@H](C)[C@@H](CCCCOCc2ccccc2)O1, the max response, negative = inhibition is reported as inactive: -6.81%.
In the case of CCCCn1c(CNC(=O)C23CC4CC(CC(C4)C2)C3)nnc1SCC(=O)Nc1ccccc1, the Potency is reported as inconclusive: 39.8 µM [activator, single point].
For CSc1c(CC(=O)Nc2ccccc2)n(Cc2ccccc2)c2ccccc12, the Potency was inconclusive: 39.8 µM [inhibitor, single point].
With Cc1ccccc1Nc1ncnc2c1c(-c1ccccc1)cn2-c1ccc(F)cc1 the max response, negative = inhibition was inactive: -26.1%.
For Cc1csc(NC(=O)c2cc3c(C)nn(Cc4ccccc4Cl)c3s2)n1, the Potency was active: 25.1 µM.
For CCNC(=O)c1cnc2sc(N3CCC(C)CC3)nn2c1=O, the max response, negative = inhibition was inactive: -14.2%.
Cc1ccc(NC(=O)CSc2nn(-c3ccccc3)c(=S)s2)cc1S(=O)(=O)N(C)C was tested, and the Potency was inconclusive: 31.6 µM [inhibitor, single point].
With CCCN(CC1CC1)c1nc(C)nc(Nc2c(Cl)cc(Cl)cc2Cl)c1Cl the Potency was active: 25.1 µM.
In the case of CCOC(=O)c1nc(N2CCN(C(=O)OCC)CC2)c2c3c(sc2n1)CCCC3, the Potency is reported as inconclusive: 31.6 µM [activator, single point].
In the case of COc1ccc2cc(CNc3ccc(C)cc3)c(=O)n(CC(=O)Nc3ccc(OC)c(Cl)c3)c2c1, the Potency is reported as inconclusive: 31.6 µM [inhibitor, single point].
With O=c1cc(-c2cccs2)oc2ccc(Cl)cc12 the max response, negative = inhibition was inactive: 0.199%.
In the case of CCc1ccc(C(=O)c2cnc3ccc(C)cc3c2S(=O)(=O)c2ccc(OC)cc2)cc1, the max response, negative = inhibition is reported as inactive: -10.6%.
In the case of CCOc1cc(/C=C(\C#N)C(N)=O)ccc1OS(=O)(=O)c1ccccc1, the Potency is reported as inconclusive: 31.6 µM [activator, single point].
With CC1=C(C(N)=O)C(c2cccc(F)c2)n2nc(SCc3ccccc3)nc2N1 (stereo unspecified) the Potency was inconclusive: 39.8 µM [inhibitor, single point].
COc1ccc(-c2nc(CCNC(=O)c3cccs3)cs2)cc1OC was tested, and the max response, negative = inhibition was inactive: -14.7%.
In the case of CCC(C(=O)Nc1cc(C(=O)Nc2cc(C)ccn2)ccc1Cl)c1ccccc1 (stereo unspecified), the Potency is reported as inconclusive: 20 µM [activator, single point].
With CCCCN(C)C(=O)CN1C(=O)CCn2nc(-c3cn(C)c4ccccc34)cc21 the Potency was inconclusive: 25.1 µM [activator, partial curve].
In the case of O=C1C(Cl)=C(N2CCOCC2)C(=O)N1c1cccc(Cl)c1, the Potency is reported as active: 12.6 µM.
With O=C1CC(c2ccc(F)cc2)Sc2nc(-c3ccccc3)c(-c3ccccc3)n21 (stereo unspecified) the Potency was inconclusive: 31.6 µM [inhibitor, single point].
For Cc1ccc(CN(C(=O)COc2ccc(C(C)(C)C)cc2)C2CCS(=O)(=O)C2)o1 (stereo unspecified), the Potency was inconclusive: 25.1 µM [activator, partial curve].
C/C(=C\C1CCCCC1)C(NC(=O)c1ccc(C(F)(F)F)cc1)c1ccc(-c2ccccc2)cc1 (stereo unspecified) was tested, and the Potency was inconclusive: 3.98 µM [inhibitor, full curve].
CN(C)c1ccc(CNC(=O)CCC(=O)N2Cc3ccccc3Oc3ncccc32)cc1 was tested, and the max response, negative = inhibition was inactive: -9.18%.
COc1ccccc1-c1nccc(NCc2cccs2)n1 was tested, and the Potency was inconclusive: 39.8 µM [activator, single point].
With CS(=O)(=O)N1CCC[C@@]2(CCN(Cc3ccccc3)C2)C1 the max response, negative = inhibition was inactive: -7.11%.
With c1nc(NC2CCCCCC2)c2[nH]cnc2n1 the max response, negative = inhibition was inactive: -14.7%.
In the case of CCc1cccc(NC(=O)c2nc(-c3ccncc3)no2)c1, the max response, negative = inhibition is reported as inactive: 18.9%.
CCOc1ccc(N(CC(=O)NCC2CCCO2)S(=O)(=O)c2ccc(SC)cc2)cc1 (stereo unspecified) was tested, and the Potency was inconclusive: 39.8 µM [activator, single point].
Cc1ccc(CNc2ncnc3c2cnn3-c2ccccc2)cc1 was tested, and the Potency was active: 25.1 µM.
Cn1cnc(S(=O)(=O)N2CCC(C(=O)N3CCN(c4cccc(C(F)(F)F)c4)CC3)CC2)c1 was tested, and the Potency was inconclusive: 25.1 µM [activator, single point].
For CCC(=O)N1CCCc2cc(S(=O)(=O)Nc3ccc(C)c(C)c3)ccc21, the max response, negative = inhibition was inactive: -11%.
In the case of COc1cc(CN2CCc3nc(N4CCN(c5ccccc5F)CC4)ncc3C2)ccc1OC(C)C, the Potency is reported as inconclusive: 39.8 µM [activator, single point].
With O=C(Nc1ccc2nc(SCC(=O)N3CCCc4ccccc43)sc2c1)c1ccc(F)cc1 the Potency was inconclusive: 39.8 µM [inhibitor, single point].
Cc1ccc(NC(=O)N(Cc2ccco2)Cc2cc3cc(C)cc(C)c3nc2Cl)cc1 was tested, and the Potency was inconclusive: 39.8 µM [inhibitor, single point].
For Cc1cc(Cl)ccc1OC(C)C(=O)N1CCCN(C(=O)C(C)Oc2ccc(Cl)cc2C)CC1 (stereo unspecified), the Potency was inconclusive: 31.6 µM [activator, partial curve].
For CCOc1ccc(CNc2ccc(N3CCCC3)cc2)cc1, the Potency was inconclusive: 12.6 µM [inhibitor, partial curve].
With C=CCCC(=O)Nc1nc(C)c(-c2csc(Nc3ccc(Cl)cc3)n2)s1 the Potency was active: 12.6 µM.
Cc1nc2c3ccccc3nc(NNC(=O)CCC(=O)N3CCN(c4ccccc4F)CC3)n2n1 was tested, and the Potency was inconclusive: 39.8 µM [activator, single point].
For C[C@@H]1CC[C@H]2[C@H](C)[C@H]3CC[C@H]4C5[C@@H](O)CC6=CC(=O)CC[C@]6(C)[C@H]5C[C@H]4C3C(=O)N2C1 (stereo partly specified), the max response, negative = inhibition was inactive: 7.24%.
Cc1cc(-c2nnc3n2N=C(c2ccc(-c4ccccc4)cc2)CS3)n[nH]1 was tested, and the Potency was active: 25.1 µM.
In the case of CCOC(=O)C1=C(CSc2nc3c(cc2C#N)CN(C)CC3)OC(N)=C(C#N)C1c1ccc(Cl)cc1 (stereo unspecified), the max response, negative = inhibition is reported as inactive: -16.8%.
For CC(C)C(=O)Nc1ccc(C(=O)NNC(=O)C(c2ccccc2)c2ccccc2)cc1, the Potency was inconclusive: 39.8 µM [inhibitor, single point].
With O=C(c1nn2c(C(F)(F)F)cc(-c3ccc(F)cc3)nc2c1Cl)N1CCOCC1 the Potency was inconclusive: 25.1 µM [activator, single point].
With COc1ccc2nc(/C=N/NC(=O)[C@H](CCSC)NC(=O)OC(C)(C)C)ccc2c1 the Potency was inconclusive: 39.8 µM [activator, single point].
With CCOc1cc(/C=C2\C(=O)N(CCc3ccc(OC)c(OC)c3)C(C)=C2C(=O)OC)ccc1O the Potency was inconclusive: 39.8 µM [activator, single point].
CCCC1(C(=O)OCC)NC(c2ccc(N(C)C)cc2)C2C(=O)N(c3ccc(OCC)cc3)C(=O)C21 (stereo unspecified) was tested, and the Potency was inconclusive: 25.1 µM [activator, single point].
With CCn1c2ccc(F)cc2c2nnc(SCCN3CCCCC3)nc21 the Potency was active: 12.6 µM.
For CCC(=O)Oc1cccc(C(=O)Nc2ccc(-c3nnc(-c4ccco4)o3)cc2)c1, the Potency was inconclusive: 39.8 µM [activator, single point].
With Cc1onc(-c2c(Cl)cccc2Cl)c1C(=O)Nc1ccc2c(c1)OCO2 the Potency was inconclusive: 39.8 µM [inhibitor, single point].
For O=C(CCc1ccc(S(=O)(=O)N2CCOCC2)cc1)OCc1nc2ccccc2s1, the Potency was inconclusive: 31.6 µM [activator, single point].
Cc1nc(N2N=C3/C(=C/c4ccc(F)cc4)CCCC3C2c2ccc(F)cc2)sc1C(=O)N(C)C (stereo unspecified) was tested, and the max response, negative = inhibition was inconclusive: 211% [activator].

From PubChem BioAssay AID1476 (National Center for Advancing Translational Sciences (NCATS), 2009)
Further: nearly all actives have a fitted effect of over 40% in size.
Potency means the concentration at half of the fitted maximal effect; tags describe the fitted curve by direction and shape.
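Wherever max response, negative = inhibition is given: plate controls were enzyme without inhibitor for no effect and buffer without enzyme for full effect.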
